This passage reports activation results from PubChem BioAssay AID1346428 (National Center for Advancing Translational Sciences (NCATS), 2018).

The structures appear in SMILES notation. Where “and” joins values, the source holds several entries; their conditions need not be identical. Equal values may be shown once. Out of some 48,000 compounds screened, about 1,200 (2.5%) were called active. Another 2% or so got no clear call; they are omitted.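 The calls were made as follows: active = activation of at least 60% and not above a set upper limit (about 1 call in 100 departs from these limits); inconclusive = activation of 40% to 60%, or above that upper limit; inactive = activation under 40%.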 Some of the results follow.

This experiment deals with Probable G-protein coupled receptor 32 (Homo sapiens) (UniProt O75388). Kind of experiment: qHTS for Agonists of Human Resolvin D1 Receptor DRV1. Also: 0% is about no effect. The note with it: CHO-K1 GPR32 beta-arrestin PathHunter luminescence, 90 min; at 76.9 µM; active compounds read high; zero percent set by DMSO-only wells. An outline of the steps: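 Engineered CHO-K1 line co-expressing GPR32-ProLink and EA-beta-arrestin. Compound treatment lasted 90 min at 37 °C. Luminescence was recorded after 1 h with substrate at ambient temperature, relative to DMSO basal wells.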
UniProt O75388, sequence (O75388 whole entry, looked up): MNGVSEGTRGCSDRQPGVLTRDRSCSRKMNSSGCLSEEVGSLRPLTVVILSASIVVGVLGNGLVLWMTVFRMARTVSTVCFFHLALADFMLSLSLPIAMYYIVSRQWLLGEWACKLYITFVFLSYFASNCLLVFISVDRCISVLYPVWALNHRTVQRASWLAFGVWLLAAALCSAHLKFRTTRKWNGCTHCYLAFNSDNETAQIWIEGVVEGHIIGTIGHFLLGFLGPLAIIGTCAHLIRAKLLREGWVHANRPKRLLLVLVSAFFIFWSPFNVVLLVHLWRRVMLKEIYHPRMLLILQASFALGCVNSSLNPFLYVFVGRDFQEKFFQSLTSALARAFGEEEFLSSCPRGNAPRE
For orientation: qHTS replaces the single test concentration by a dilution series.
In the case of `O=C(Nc1cc(Cl)cc(Cl)c1)c1ccc2c(c1)N(Cc1cccc(Cl)c1)C(=O)c1ccccc1S2=O` (configuration not stated), the activation is inactive: -5.13%.

For the compound `COC(=O)c1ccc(C2c3c(oc4ccccc4c3=O)C(=O)N2c2nc(C)c(C(=O)OC)s2)cc1` (configuration not stated), the activation was inactive: -4.31%.

As for `CCC(=O)C1=C(c2ccc(Cl)cc2)N(C(=O)CC)n2c(C)nnc2S1`, the activation is inactive: -66.5%.

Take `CCS(=O)(=O)c1ccc(O)c(Nc2cc(C)nc(SC)n2)c1`: the activation is inactive: 32.1%.

In the case of `O=C(CSc1oc(-c2ccco2)nc1S(=O)(=O)c1ccc(Br)cc1)c1ccccc1`, the activation is inactive: -24.8%.

For `Cc1ccc(S(=O)(=O)C(CNC(=O)c2ccc(F)c(F)c2)c2ccco2)cc1` (configuration not stated), the activation was inactive: -4.54%.

Consider `CCCCn1c(=O)c2oc3ccccc3c2n(Cc2cccc(F)c2)c1=O`, for which the activation is inactive: -18.2%.

In the case of `Cc1cc(C)cc(NC(=O)c2ccc3c(c2)nnn3C2CCCC2)c1`, the activation was inactive: -33.9%.

Turning to `Cc1ccc(CNC(=O)CCN2C(=O)COc3ccc(C)cc32)cc1`, the activation was inactive: -9.94%.

`CCc1nnc2c(Nc3cccc(F)c3)nc3ccc(C(=O)c4ccccc4)cc3n12`: the activation was inactive: 6.84%.

With `CCOC(=O)c1cccc(NC(=O)c2cc3c(=O)n(C)c4ccccc4c3n2C)c1`, the activation was inactive: -26.8%.

Consider `CC(C)c1cnc2c(c1SCC(=O)Nc1ccc(OC(F)(F)F)cc1)c(=O)n(C)c(=O)n2C`, for which the activation is inactive: -10.3%.

Take `O=C(c1cc(-c2cccc(Cl)c2)on1)N1CCN(c2ccccc2)CC1`: the activation is inactive: -4.1%.

Take `O=C(CCCN1C(=O)c2cccnc2Oc2ccc(Cl)cc21)NCc1ccccc1F`: the activation was inactive: -17.8%.

Turning to `CC1CCN(S(=O)(=O)c2nnc(NC(=O)c3ccc(C(C)C)cc3)s2)CC1`, the activation is inactive: 28.7%.

In the case of `CCN(CC)CCOC(=O)c1ccc(NC(=O)c2nn(C)c3c2COc2ccccc2-3)cc1`, the activation is inactive: 7.83%.

For `Cc1ccc(NC2=C(CC(=O)O)C(c3ccc(F)cc3)N(c3ccc(C)cc3)C2=O)cc1` (configuration not stated), the activation was inactive: -20.4%.

In the case of `COc1ccc(NC(=O)c2c(NCc3ccc(N(C)C)cc3)sc3c2CCC3)cc1`, the activation is inactive: 7.04%.

On to `COC(=O)C1=C(C)NC(C)=C(C(=O)OCCN(C)Cc2ccccc2)C1c1cccc([N+](=O)[O-])c1` (configuration not stated), for which the activation was inactive: -8.76% and inactive: -44.6%.

Regarding `CCc1ccc(N2CCn3c2nc2c3c(=O)n(C/C=C/c3ccccc3)c(=O)n2C)cc1`, the activation was inactive: -7.26%.

As to `Cc1ccc(CNC(=O)CC(C)CC2=NS(=O)(=O)c3ccccc3N2)cc1` (configuration not stated), the activation is inactive: -0.4%.

Take `Cc1ccsc1CN(C(=O)c1oc2ccc(F)cc2c1C)C1CCS(=O)(=O)C1` (configuration not stated): the activation was inactive: -26.5%.

With `CCOc1ccccc1NC(=O)N(Cc1ccc(F)cc1)C1CCN(CC)CC1`, the activation is inactive: -23.3%.

Take `Cc1ccc(NC(=O)C2CCCN2S(=O)(=O)c2cccc3nsnc23)c(C)c1` (configuration not stated): the activation is inactive: 7.96%.

As for `CCOc1ccc(-c2nonc2NC(=O)c2oc3cc(C)c(C)cc3c2C)cc1OCC`, the activation was inactive: -4.42%.

Regarding `Cc1ccc(Nc2ncc(C(=O)N3CCN(c4ccc(F)cc4)CC3)c3ccccc23)cc1Cl`, the activation is inactive: -11.8%.

Consider `COc1cccc(CNS(=O)(=O)c2cc3[nH]c(=O)c(=O)[nH]c3cc2C)c1`, for which the activation was inactive: 20.4%.

Consider `CCc1ccc(NC(=O)c2ccc(F)c(S(=O)(=O)N3CCC4(CC3)OCCO4)c2)cc1`, for which the activation is inactive: 0.0534%.

`Cc1ccc(C)c(-n2c3nc(=O)[nH]c(=O)c-3cc3c(C)nn(-c4ccccc4)c32)c1`: the activation was inactive: -2.39%.

In the case of `CCCCCn1c(=O)[nH]c2cc(C(=O)NCc3ccc(Cl)cc3)ccc2c1=O`, the activation was inactive: 2.8%.

Take `COc1ccccc1C(=O)NCCn1cc(SCc2ccc(C)cc2)c2ccccc21`: the activation was inactive: -23%.

With `CCC1CCc2nc3sc(C(=O)Nc4ccc(C)cc4)c(N)c3cc2C1` (configuration not stated), the activation was inactive: -13.2%.

Turning to `COc1ccc(OC)c2sc(N3CCN(C(=O)c4ccc5c(c4)CCCC5)CC3)nc12`, the activation is inactive: -4.21%.

For `COc1ccc(C2CC(=O)N(Cc3ccc(F)cc3)c3ccccc3S2)cc1OC` (configuration not stated), the activation is inactive: 14.1%.

For the compound `O=C(CN1CCN(Cc2cccc(Cl)c2)C1=O)NCc1ccc(F)cc1`, the activation is inactive: 0.266%.

As to `CCN(c1ccccc1C)S(=O)(=O)c1ccc(N2CCCCS2(=O)=O)cc1`, the activation was inactive: -11.4%.

For the compound `CCc1ccccc1NS(=O)(=O)c1ccc2c(c1)CCN2C(=O)C1CC1`, the activation was inactive: -7.89%.

As to `CCc1ccc(-c2nn(CC(=O)NC3CCCCC3)c3c2cnc2ccc(C)cc23)cc1`, the activation was inactive: -6.63%.

For the compound `c1ccc(N2CCN(Cc3cccn3-c3nnc(N4CCN(C5CCCCC5)CC4)s3)CC2)cc1`, the activation was inactive: 28.4%.

In the case of `CCOc1ccc(CCNC(=O)c2nn(-c3ccc(OC)c(Cl)c3)c(=O)c3c2c2ccccc2n3C)cc1OCC`, the activation was inactive: -11.8%.

With `Cn1c(=O)c2cc(C(=O)NCCCN3CCN(c4cccc(Cl)c4)CC3)sc2c2ccccc21`, the activation was inactive: 7.69%.

As for `Cc1nn(-c2ccccc2)c(-n2cccc2)c1C(=O)NCCc1ccc(Cl)cc1`, the activation was inactive: -9.46%.

Turning to `O=C(COc1ccc(Br)cc1Cl)Nc1ncn[nH]1`, the activation is inactive: 11.6%.

Take `CC(C)Cn1c(=O)c2sccc2n2c(CCCC(=O)NCCc3ccc(Cl)cc3)nnc12`: the activation is inactive: -9.38%.

For `O=C(Nc1ccc(Br)cc1)c1ccc(F)c(S(=O)(=O)N2CCCc3ccccc32)c1`, the activation was inactive: -3.74%.

Turning to `CC(C)NC(=O)c1ccc(-n2c(-c3ccccc3)cc3c2CCCC3)cc1`, the activation is inactive: -23.8%.

On to `COc1ccc(OCC(=O)Nc2ccc3c(c2)nc(CCNC(=O)c2ccco2)n3C)cc1`, for which the activation was inactive: 10.5%.

In the case of `CCc1ccc(NC(=O)CSc2nc(-c3ccccc3Cl)nc3c2Cc2c(CO)cnc(C)c2O3)cc1`, the activation was inactive: -4.18%.

In the case of `CCc1ccc2nc(N(Cc3cccnc3)C(C)=O)sc2c1`, the activation was inactive: -26.4%.

Consider `CCOC(=O)c1ccc(CN(Cc2ccc(Cl)cc2Cl)S(=O)(=O)c2ccc(F)c(C)c2)cc1`, for which the activation was inactive: -17.8%.

As for `COc1ccc(NC(=O)Cn2c(=O)n(Cc3nc(-c4ccccc4)no3)c(=O)c3cc4c(cc32)OCO4)c(OC)c1`, the activation is inactive: -0.763%.

For `O=C(Nc1ccc2oc(-c3cccnc3)nc2c1)c1ccc(Br)cc1`, the activation was inactive: -0.276%.
